# The other results are listed elsewhere or left out.
# System: PfAP2-HC AP2 domain (GST-tagged)
# Test: gcPBM binding intensity (ln(normalized median fluorescence intensity)); higher = stronger DNA binding
# Summary of the method: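 Plasmodium falciparum DNA-binding domains carrying a GST tag were expressed in E. coli and applied for 1 h, at about 25 μg on average, to an Agilent 4 × 180k array. The array held primer-extended double-stranded 36-bp intergenic genomic probes together with negative controls, and binding took place in 1× PBS with 1% milk, 0.2 mg/ml BSA, 0.5% salmon testes DNA and 0.03% Triton X-100. An Alexa488 anti-GST antibody detected bound protein, and the array was scanned at 488 nm. Binding intensity is taken as the highest Masliner-normalised natural-log median intensity across replicate spots of either probe orientation.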
row,Sequence,gcPBM binding intensity (ln)
1,AAAAATTTCTATTTTTGTACTTACTTTTTAGTAATA [XGTACX_site5236],9.45
2,CTTATATTTGGACACACACACAATAAAATGAAAAAA [CACACA_site6614],10.3
3,AAATCTTCATAATAAAGTACTTAACTCTTGGTGTTA [XGTACX_site6112],9.36
4,TACACAAGAAAATTCACACACACACCGATATATATA [CACACA_site6008],10.7
5,AATAAATGGAAAAGGTGTACACAAAAAAAAGGGAAA [XGTACX_site4956],10
6,AAAAAAAAAAAAAAAACATGCAGTTAGTGGTTTTTT [TGCATGCA_site243],9.66
7,TATTATATATAATATTGTACATTAAAATATTAAAGA [XGTACX_site3698],9.48
8,GGAACGTTCATATTTCCACACACAAAAAATAAATAT [CACACA_site9101],10.2
9,TTTATTTTAAAATATAGTACGCAAATAAAAATAAAT [XGTACX_site7783],9.63
10,ATATGTATTAAGTGTACACATATAATGGGTTTTCTT [CACACA_site5328],9.86
11,GAAAAAAAAATACATACACACAATATATTTATTTAT [CACACA_site3124],9.89
12,TAATTATATAAATACACACACATACACCCAAATAAA [CACACA_site5819],11.1
13,TATATACTATATATATGTACACAAAATTATTTTGAA [XGTACX_site8232],9.51
14,ATATGTAGTGTTATTTGTTCATTGTTTTAATTTTTA [CACACA_negctrl_site1394],10
15,ATGTATATTTTTATGTGTACGTAATAAAACATAATA [XGTACX_site7777],9.71
16,TTATTTTTTTTTAGAGCACACATTTTTAATAAGGTA [CACACA_site2133],9.48
17,AATATGGGCATACATGTGCACTTTTTCCCGTGGTTT,9.68
18,TTAATTAAATATAGGGGTACATATTATATATGTTTT [XGTACX_site3677],9.66
19,ACGAAAAGATATATATGTACATATATTAAAAAAAAA [XGTACX_site1517],9.72
20,TTATATGCATATTTTTGTACACAACATTGTTGTATA [XGTACX_site8707],9.74
21,AAGAAATTTATTTATTGTACAATATATAATTTGTTT [XGTACX_site2478],9.54
22,AAATATTTCTGCAAGGTGCACTTTATAAATCTTTGA,9.48
23,TTCGTATGCATGAAATGTACATGATATTATTATAAA [XGTACX_site4542],9.57
24,TTTTGTTAACATATAGAAAAGAACAAAGTTAAAAAG [XGTACX_negctrl_site462],9.69
25,TATAAATTTGTTCAATGTACATGTAAAGATATAATC [XGTACX_site371],9.74
